# Test results taken from PubChem BioAssay AID1745853 (National Center for Advancing Translational Sciences (NCATS), 2022).
# The other results are listed elsewhere or left out. Further columns of the screen follow, without active or inactive calls.
# What was measured:
# Test in all cases: Primary Screen for Target Class Profiling of Small Molecule Inhibitors of Methyltransferases
# [1] = biological target: Glycine N-methyltransferase (Homo sapiens) (UniProt Q14749); conditions: purified enzyme, MTase-Glo SAH luminescence; measured here: GNMT inhibition; at 40 µM; stronger effect = lower value
# In short: (§1)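 Each enzyme was reacted with SAM and its substrate, with compounds tested once at 40 uM; SAH formed was read by MTase-Glo luminescence.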
# [2] = biological target: Guanidinoacetate N-methyltransferase (Homo sapiens) (UniProt Q14353); conditions: purified enzyme, MTase-Glo SAH luminescence; measured here: GAMT inhibition; at 40 µM; stronger effect = lower value
# In short: as §1
# [3] = biological target: Histamine N-methyltransferase (Homo sapiens) (UniProt P50135); conditions: purified enzyme, MTase-Glo SAH luminescence; measured here: HNMT inhibition; at 40 µM; stronger effect = lower value
# In short: as §1
# [4] = biological target: Nicotinamide N-methyltransferase (Homo sapiens) (UniProt P40261); conditions: purified enzyme, MTase-Glo SAH luminescence; measured here: NNMT inhibition; at 40 µM; stronger effect = lower value
# In short: as §1
# [5] = biological target: Phenylethanolamine N-methyltransferase (Homo sapiens) (UniProt P11086); conditions: purified enzyme, MTase-Glo SAH luminescence; measured here: PNMT inhibition; at 40 µM; stronger effect = lower value
# In short: as §1
# % is scaled to controls: 0 for no effect and ±100 for the full control effect.
compound,measurement,setting,value
CC(C)NC(=O)c1ccnc(-c2cc(NC3CCCC3)nc3[nH]ccc23)c1,"activity change, negative = inhibition",[1],-11.9%
same,"activity change, negative = inhibition",[2],-7.86%
same,"activity change, negative = inhibition",[3],-9.29%
same,"activity change, negative = inhibition",[4],-14.4%
same,"activity change, negative = inhibition",[5],-16.3%
C[C@@H]1O[C@@H](O[C@@H]2[C@@H](O)[C@H](O[C@@H]3[C@@H](O)[C@@H](O)[C@H](O[C@H]4[C@H](OC(=O)[C@]56CCC(C)(C)C[C@H]5C5=CCC7[C@@]8(C)C[C@H](O)[C@H](O[C@@H]9O[C@@H](C)[C@H](O)[C@@H](O)[C@H]9O)[C@@](C)(CO)C8CC[C@@]7(C)[C@]5(C)C[C@H]6O)O[C@H](C)[C@H](O)[C@@H]4O)O[C@H]3C)OC[C@H]2O)[C@H](O)[C@H](O)[C@H]1O (some centres not stated),"activity change, negative = inhibition",[1],0.757%
same,"activity change, negative = inhibition",[2],-3.15%
same,"activity change, negative = inhibition",[3],3.87%
same,"activity change, negative = inhibition",[4],-1.77%
same,"activity change, negative = inhibition",[5],8.71%
O=C(c1cn(CC2CCCO2)nn1)N1CCN(c2cccc(C(F)(F)F)c2)CC1 (configuration not stated),"activity change, negative = inhibition",[1],-5.04%
same,"activity change, negative = inhibition",[2],-8.37%
same,"activity change, negative = inhibition",[3],-4.8%
same,"activity change, negative = inhibition",[4],-13.5%
same,"activity change, negative = inhibition",[5],-4.94%
CCC(CC)C(=O)OC12C(OC(=O)C(C)C)C(C)C3(O)C(C=C(CO)CC4(O)C(=O)C(C)=CC43)C1C2(C)C (configuration not stated),"activity change, negative = inhibition",[1],-1.26%
same,"activity change, negative = inhibition",[2],-6.5%
same,"activity change, negative = inhibition",[3],4.36%
same,"activity change, negative = inhibition",[4],-21.3%
same,"activity change, negative = inhibition",[5],0.103%
COc1cccc(CN2C(=O)c3cc4ccccc4n3CC2(C)C(=O)NCCC(C)C)c1 (configuration not stated),"activity change, negative = inhibition",[1],2.54%
same,"activity change, negative = inhibition",[2],0%
same,"activity change, negative = inhibition",[3],3.92%
same,"activity change, negative = inhibition",[4],2.55%
same,"activity change, negative = inhibition",[5],-0.188%
CC(C)(C)c1cc(C(=O)NCc2cccnc2)nn2cccc12,"activity change, negative = inhibition",[1],-12.3%
same,"activity change, negative = inhibition",[2],-4.72%
same,"activity change, negative = inhibition",[3],-4.84%
same,"activity change, negative = inhibition",[4],-20.2%
same,"activity change, negative = inhibition",[5],-7.97%
Cc1cccc(C2c3cccn3-c3sc4c(c3CN2C(=O)Nc2ccc3c(c2)OCCO3)CCCC4)c1 (configuration not stated),"activity change, negative = inhibition",[1],-1.73%
same,"activity change, negative = inhibition",[2],2.98%
same,"activity change, negative = inhibition",[3],-4.32%
same,"activity change, negative = inhibition",[4],0.063%
same,"activity change, negative = inhibition",[5],0.671%
COCCN(C)Cc1ccc2nc3sc(C(=O)N(C)C4CCCCC4)cn3c2c1,"activity change, negative = inhibition",[1],3.18%
same,"activity change, negative = inhibition",[2],5.18%
same,"activity change, negative = inhibition",[3],-71.4%
same,"activity change, negative = inhibition",[4],-5.73%
same,"activity change, negative = inhibition",[5],4.47%
CCCN1C(=O)c2c(C(=O)NCCCc3ccccc3)ncn2CC1(C)C(=O)NCCC(C)C (configuration not stated),"activity change, negative = inhibition",[1],-2.4%
same,"activity change, negative = inhibition",[2],0%
same,"activity change, negative = inhibition",[3],2.46%
same,"activity change, negative = inhibition",[4],-6.4%
same,"activity change, negative = inhibition",[5],3.01%
O=C(CCC[C@@H]1[C@H]2CCCN3CCC[C@@H](CN1Cc1ccccc1)[C@@H]23)Nc1cccnc1,"activity change, negative = inhibition",[1],-9.14%
same,"activity change, negative = inhibition",[2],-6.69%
same,"activity change, negative = inhibition",[3],-55.4%
same,"activity change, negative = inhibition",[4],-10.4%
same,"activity change, negative = inhibition",[5],-3.87%
Cc1ccc(N2CCN(C(=O)c3cc(C(F)(F)F)nn3C)CC2=O)cc1,"activity change, negative = inhibition",[1],-1.6%
same,"activity change, negative = inhibition",[2],-1.69%
same,"activity change, negative = inhibition",[3],-0.705%
same,"activity change, negative = inhibition",[4],-4.6%
same,"activity change, negative = inhibition",[5],13.1%
COc1cccc(Nc2nccc3c(=O)cc(-c4ccccn4)oc23)c1,"activity change, negative = inhibition",[1],-47.7%
same,"activity change, negative = inhibition",[2],-21.5%
same,"activity change, negative = inhibition",[3],-36.2%
same,"activity change, negative = inhibition",[4],-42.1%
same,"activity change, negative = inhibition",[5],-32.5%
CC1(C)CC[C@]2(C(=O)O)CC[C@]3(C)C(=CCC4[C@@]5(C)C[C@@H](O)[C@H](O)[C@@](C)(CO)C5[C@H](O)C[C@]43C)[C@@H]2C1 (some centres not stated),"activity change, negative = inhibition",[1],4.36%
same,"activity change, negative = inhibition",[2],7.19%
same,"activity change, negative = inhibition",[3],6.92%
same,"activity change, negative = inhibition",[4],-5.18%
same,"activity change, negative = inhibition",[5],7.81%
CC(c1ccccc1)N1C(=O)c2ccccc2CC1(C)C(=O)NC1CCCCCCC1 (configuration not stated),"activity change, negative = inhibition",[1],-2.64%
same,"activity change, negative = inhibition",[2],0.635%
same,"activity change, negative = inhibition",[3],7.14%
same,"activity change, negative = inhibition",[4],-2.02%
same,"activity change, negative = inhibition",[5],3.01%
Cc1ccccc1NC(=O)c1ncn2c1C(=O)N(C1CC1)C(C)(C(=O)NCc1ccc(F)cc1)C2 (configuration not stated),"activity change, negative = inhibition",[1],3.78%
same,"activity change, negative = inhibition",[2],0%
same,"activity change, negative = inhibition",[3],9.81%
same,"activity change, negative = inhibition",[4],4.55%
same,"activity change, negative = inhibition",[5],7.5%
CCOC(=O)c1cc2n(n1)CC(C)(C(=O)NC1CCC(C)CC1)N(c1cc(C)cc(C)c1)C2=O (configuration not stated),"activity change, negative = inhibition",[1],3.31%
same,"activity change, negative = inhibition",[2],0.919%
same,"activity change, negative = inhibition",[3],2.83%
same,"activity change, negative = inhibition",[4],-2.1%
same,"activity change, negative = inhibition",[5],2.79%
Cc1nnc([C@H]2CCN(C(=O)c3ccccc3)C2)o1,"activity change, negative = inhibition",[1],-0.488%
same,"activity change, negative = inhibition",[2],2.17%
same,"activity change, negative = inhibition",[3],0.131%
same,"activity change, negative = inhibition",[4],-5.31%
same,"activity change, negative = inhibition",[5],12.7%
Cc1cnc(C(=O)NC2C[C@H]3CC[C@@H](C2)N3C(=O)c2ccccc2C)cn1 (some centres not stated),"activity change, negative = inhibition",[1],-1.54%
same,"activity change, negative = inhibition",[2],2.59%
same,"activity change, negative = inhibition",[3],1.25%
same,"activity change, negative = inhibition",[4],-5.95%
same,"activity change, negative = inhibition",[5],-0.016%
CC(C)(C(=O)NCC(F)(F)C(F)(F)F)C(=O)NC1C(=O)Nc2ccccc2-c2ccccc21 (configuration not stated),"activity change, negative = inhibition",[1],5.01%
same,"activity change, negative = inhibition",[3],6.3%
CC(C)CCn1c(=O)c2ccc(C(=O)NCC(C)C)cc2n2c(=O)n(CC(=O)N(C)c3ccccc3)nc12,"activity change, negative = inhibition",[1],-0.349%
same,"activity change, negative = inhibition",[2],0%
same,"activity change, negative = inhibition",[3],6.34%
same,"activity change, negative = inhibition",[4],-10.2%
same,"activity change, negative = inhibition",[5],1.21%
Cc1ccc(C)c(OCc2cc(C(=O)N3CCC(N4CCSCC4)CC3)no2)c1,"activity change, negative = inhibition",[1],-1.4%
same,"activity change, negative = inhibition",[2],-4%
same,"activity change, negative = inhibition",[3],-2.81%
same,"activity change, negative = inhibition",[4],-8.44%
same,"activity change, negative = inhibition",[5],0.764%
Cn1c(=O)c2ccc(C(=O)NC3CCCC3)cc2n2c(SCc3ccc(Cl)cc3)nnc12,"activity change, negative = inhibition",[1],-7.78%
same,"activity change, negative = inhibition",[2],-0.249%
same,"activity change, negative = inhibition",[3],-0.388%
same,"activity change, negative = inhibition",[4],1.57%
same,"activity change, negative = inhibition",[5],-0.056%
COC(=O)[C@@]1(C)CC[C@]2(C(=O)O[C@@H]3O[C@H](CO)[C@@H](O)[C@H](O)[C@H]3O)CC[C@]3(C)C(=CCC4[C@@]5(C)CC[C@H](O[C@@H]6O[C@H](C(=O)O)[C@@H](O)[C@H](O)[C@H]6O)C(C)(C)C5CC[C@]43C)[C@@H]2C1 (some centres not stated),"activity change, negative = inhibition",[1],0%
same,"activity change, negative = inhibition",[2],-8.15%
same,"activity change, negative = inhibition",[3],6.04%
same,"activity change, negative = inhibition",[4],-23.6%
same,"activity change, negative = inhibition",[5],-9.15%
COC(=O)c1cc2n(n1)CC(C)(C(=O)NC1CCCCCC1)N(c1cc(C)ccc1C)C2=O (configuration not stated),"activity change, negative = inhibition",[1],-0.753%
same,"activity change, negative = inhibition",[2],-1.72%
same,"activity change, negative = inhibition",[3],-18.8%
same,"activity change, negative = inhibition",[4],1.71%
same,"activity change, negative = inhibition",[5],-0.579%
N#Cc1cccc(S(=O)(=O)N[C@@H]2CCOC[C@H]2OCc2cscn2)c1,"activity change, negative = inhibition",[1],-6.4%
same,"activity change, negative = inhibition",[2],-3.42%
same,"activity change, negative = inhibition",[3],-0.775%
same,"activity change, negative = inhibition",[4],-6.23%
same,"activity change, negative = inhibition",[5],1.34%
O=C([C@H](O)c1ccccc1)N1CCc2onc(-c3cccc4ccccc34)c2C1,"activity change, negative = inhibition",[1],-11.8%
same,"activity change, negative = inhibition",[2],-6.62%
same,"activity change, negative = inhibition",[3],-7.36%
same,"activity change, negative = inhibition",[4],-21.3%
same,"activity change, negative = inhibition",[5],-1.65%
COc1ccc2cc3n(c2c1)CC(C)(C(=O)NC1CCCCC1)N(CCCN1CCOCC1)C3=O (configuration not stated),"activity change, negative = inhibition",[1],3.34%
same,"activity change, negative = inhibition",[2],1.38%
same,"activity change, negative = inhibition",[3],-0.834%
same,"activity change, negative = inhibition",[4],0.923%
same,"activity change, negative = inhibition",[5],-3.33%
